Laboratory results published in PMC12820563.
Some of the results follow. The list includes weakly bound sequences.

target: T1, MBP-FoxP3dN (UniProt Q99JB6); assay: PD-seq (MBP pull-down with sequencing); conditions: 20 mM Tris-HCl pH 7.5, 100 mM NaCl, 1.5 mM MgCl2, 0.4 uM protein, 0.1 uM dsDNA library, 30 min, room temperature, amylose pull-down; high values mean tight binding; double strand, one strand shown
T1 sequence: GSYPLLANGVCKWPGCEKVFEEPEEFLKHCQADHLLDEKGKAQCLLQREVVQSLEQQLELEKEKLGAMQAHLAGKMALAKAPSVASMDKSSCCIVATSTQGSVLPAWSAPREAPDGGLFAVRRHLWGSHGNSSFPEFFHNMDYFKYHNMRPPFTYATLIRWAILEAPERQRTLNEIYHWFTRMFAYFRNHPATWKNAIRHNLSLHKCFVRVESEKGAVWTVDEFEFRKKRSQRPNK

**Q.** For “GATGATTGTTCTCCCAGCTGATGAATTAAGTCCTTCGAGTAAACAAATTTTCCTAATCTTTCTGTTCAAGCGCCATCTAC”, which binding signal (RPM ratio (pull-down/input)) is on record?
**A.** 0.358

**Q.** With “GATGATTGTTCTCCCAGCTGATGAATTGAATATTTCGAGTAAACAAATTTTCCTAATCTTTCTGTTCAAGCGCCATCTAC” as the sequence, how does the binding signal (RPM ratio (pull-down/input)) read?
**A.** 0.671

**Q.** For “GATGATTGTTCTCCCAGCTGATGAATTATGTGCATCGAGTAAACAAATTTTCCTAATCTTTCTGTTCAAGCGCCATCTAC”, which binding signal (RPM ratio (pull-down/input)) is on record?
**A.** 2.21

**Q.** How did the binding signal (RPM ratio (pull-down/input)) turn out when “GATGATTGTTCTCCCAGCTGATGAATTAAATTTGTCGAGTAAACAAATTTTCCTAATCTTTCTGTTCAAGCGCCATCTAC” was run?
**A.** 1.61

**Q.** With “GATGATTGTTCTCCCAGCTGATGAATTGACCCGTTCGAGTAAACAAATTTTCCTAATCTTTCTGTTCAAGCGCCATCTAC” as the sequence, how does the binding signal (RPM ratio (pull-down/input)) read?
**A.** 0.292

**Q.** Which binding signal (RPM ratio (pull-down/input)) does the source give for “GATGATTGTTCTCCCAGCTGATGAATTAGGGATGTCGAGTAAACAAATTTTCCTAATCTTTCTGTTCAAGCGCCATCTAC” here?
**A.** 0.518

**Q.** Which binding signal (RPM ratio (pull-down/input)) does the source give for “GATGATTGTTCTCCCAGCTGATGAATTCAGGGGATCGAGTAAACAAATTTTCCTAATCTTTCTGTTCAAGCGCCATCTAC” here?
**A.** 0.302

**Q.** With “GATGATTGTTCTCCCAGCTGATGAATTGTTAACGTCGAGTAAACAAATTTTCCTAATCTTTCTGTTCAAGCGCCATCTAC” as the sequence, how does the binding signal (RPM ratio (pull-down/input)) read?
**A.** 0.643

**Q.** Which binding signal (RPM ratio (pull-down/input)) does the source give for “GATGATTGTTCTCCCAGCTGATGAATTGTCCCAGTCGAGTAAACAAATTTTCCTAATCTTTCTGTTCAAGCGCCATCTAC” here?
**A.** 0.266

**Q.** Which binding signal (RPM ratio (pull-down/input)) does the source give for “GATGATTGTTCTCCCAGCTGATGAATTCCCGTATTCGAGTAAACAAATTTTCCTAATCTTTCTGTTCAAGCGCCATCTAC” here?
**A.** 0.951

**Q.** With “GATGATTGTTCTCCCAGCTGATGAATTCAAGTACTCGAGTAAACAAATTTTCCTAATCTTTCTGTTCAAGCGCCATCTAC” as the sequence, how does the binding signal (RPM ratio (pull-down/input)) read?
**A.** 0.42

**Q.** With “GATGATTGTTCTCCCAGCTGATGAATTTCCCTCGTCGAGTAAACAAATTTTCCTAATCTTTCTGTTCAAGCGCCATCTAC” as the sequence, how does the binding signal (RPM ratio (pull-down/input)) read?
**A.** 0.234

**Q.** Which binding signal (RPM ratio (pull-down/input)) does the source give for “GATGATTGTTCTCCCAGCTGATGAATTGTAGCACTCGAGTAAACAAATTTTCCTAATCTTTCTGTTCAAGCGCCATCTAC” here?
**A.** 0.959

**Q.** “GATGATTGTTCTCCCAGCTGATGAATTCTATCAATCGAGTAAACAAATTTTCCTAATCTTTCTGTTCAAGCGCCATCTAC” was tested. Which binding signal (RPM ratio (pull-down/input)) did it give?
**A.** 0.358

**Q.** How did the binding signal (RPM ratio (pull-down/input)) turn out when “GATGATTGTTCTCCCAGCTGATGAATTGGAGTACTCGAGTAAACAAATTTTCCTAATCTTTCTGTTCAAGCGCCATCTAC” was run?
**A.** 0.523

**Q.** Which binding signal (RPM ratio (pull-down/input)) does the source give for “GATGATTGTTCTCCCAGCTGATGAATTTCTACGGTCGAGTAAACAAATTTTCCTAATCTTTCTGTTCAAGCGCCATCTAC” here?
**A.** 0.202

**Q.** “GATGATTGTTCTCCCAGCTGATGAATTCGTTCAATCGAGTAAACAAATTTTCCTAATCTTTCTGTTCAAGCGCCATCTAC” was tested. Which binding signal (RPM ratio (pull-down/input)) did it give?
**A.** 0.256

**Q.** Which binding signal (RPM ratio (pull-down/input)) does the source give for “GATGATTGTTCTCCCAGCTGATGAATTGCCTTGGTCGAGTAAACAAATTTTCCTAATCTTTCTGTTCAAGCGCCATCTAC” here?
**A.** 0.59

**Q.** “GATGATTGTTCTCCCAGCTGATGAATTTCCACCTTCGAGTAAACAAATTTTCCTAATCTTTCTGTTCAAGCGCCATCTAC” was tested. Which binding signal (RPM ratio (pull-down/input)) did it give?
**A.** 0.274

**Q.** “GATGATTGTTCTCCCAGCTGATGAATTTATCACGTCGAGTAAACAAATTTTCCTAATCTTTCTGTTCAAGCGCCATCTAC” was tested. Which binding signal (RPM ratio (pull-down/input)) did it give?
**A.** 1.66

**Q.** For “GATGATTGTTCTCCCAGCTGATGAATTGCTCTCGTCGAGTAAACAAATTTTCCTAATCTTTCTGTTCAAGCGCCATCTAC”, which binding signal (RPM ratio (pull-down/input)) is on record?
**A.** 0.506

**Q.** With “GATGATTGTTCTCCCAGCTGATGAATTGTTATGATCGAGTAAACAAATTTTCCTAATCTTTCTGTTCAAGCGCCATCTAC” as the sequence, how does the binding signal (RPM ratio (pull-down/input)) read?
**A.** 3.78

**Q.** How did the binding signal (RPM ratio (pull-down/input)) turn out when “GATGATTGTTCTCCCAGCTGATGAATTACATCCTTCGAGTAAACAAATTTTCCTAATCTTTCTGTTCAAGCGCCATCTAC” was run?
**A.** 0.461

**Q.** “GATGATTGTTCTCCCAGCTGATGAATTCGGAGCATCGAGTAAACAAATTTTCCTAATCTTTCTGTTCAAGCGCCATCTAC” was tested. Which binding signal (RPM ratio (pull-down/input)) did it give?
**A.** 0.645

**Q.** For “GATGATTGTTCTCCCAGCTGATGAATTGAAAACATCGAGTAAACAAATTTTCCTAATCTTTCTGTTCAAGCGCCATCTAC”, which binding signal (RPM ratio (pull-down/input)) is on record?
**A.** 1.27

**Q.** For “GATGATTGTTCTCCCAGCTGATGAATTGGGCCCATCGAGTAAACAAATTTTCCTAATCTTTCTGTTCAAGCGCCATCTAC”, which binding signal (RPM ratio (pull-down/input)) is on record?
**A.** 0.916

**Q.** “GATGATTGTTCTCCCAGCTGATGAATTATATGGGTCGAGTAAACAAATTTTCCTAATCTTTCTGTTCAAGCGCCATCTAC” was tested. Which binding signal (RPM ratio (pull-down/input)) did it give?
**A.** 0.505

**Q.** With “GATGATTGTTCTCCCAGCTGATGAATTTTTAGCCTCGAGTAAACAAATTTTCCTAATCTTTCTGTTCAAGCGCCATCTAC” as the sequence, how does the binding signal (RPM ratio (pull-down/input)) read?
**A.** 0.414

**Q.** “GATGATTGTTCTCCCAGCTGATGAATTGTGACCTTCGAGTAAACAAATTTTCCTAATCTTTCTGTTCAAGCGCCATCTAC” was tested. Which binding signal (RPM ratio (pull-down/input)) did it give?
**A.** 0.695

**Q.** How did the binding signal (RPM ratio (pull-down/input)) turn out when “GATGATTGTTCTCCCAGCTGATGAATTCGAGGCATCGAGTAAACAAATTTTCCTAATCTTTCTGTTCAAGCGCCATCTAC” was run?
**A.** 0.784

**Q.** For “GATGATTGTTCTCCCAGCTGATGAATTTAGGACCTCGAGTAAACAAATTTTCCTAATCTTTCTGTTCAAGCGCCATCTAC”, which binding signal (RPM ratio (pull-down/input)) is on record?
**A.** 0.374

**Q.** “GATGATTGTTCTCCCAGCTGATGAATTCAACAAGTCGAGTAAACAAATTTTCCTAATCTTTCTGTTCAAGCGCCATCTAC” was tested. Which binding signal (RPM ratio (pull-down/input)) did it give?
**A.** 0.357
